# Results taken from PubChem BioAssay AID743279 (National Center for Advancing Translational Sciences (NCATS), 2014).
# Several values for one entry are separate records, joined by “and”; a condition that tells them apart may be missing. Equal entries are not always repeated. The campaign covered roughly 360,000 compounds. About 17,000 (4.7%) were called active. The shares of active, inactive and inconclusive entries below differ from those in the screen. No stated cut-off is given here; in the data, active means activity change below about -50%; inconclusive means mostly about -30% to -49%; inactive means weaker than that.
# Assay: qHTS for Inhibitors of Inflammasome Signaling: IL-1-beta AlphaLISA Primary Screen
# Conditions: THP-1 LPS/ATP IL-1B secretion, 16 h; at 57.5 µM, hits give low values
# Summary of the method: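 THP-1 cells pretreated 1 hr with compounds (up to 57.5 uM final), then stimulated with LPS (250 ng/mL final) plus ATP (1.25 mM final); secreted IL-1B measured by AlphaLISA after 16 hr, decreased signal indicating inhibition.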
# On the % scale 0 is the no-effect control and ±100 the full control effect.
row,SMILES,activity change
1,CC1CCN(CCCCOc2ccccc2[N+](=O)[O-])CC1,active: -61.8%
2,CCOC(=O)c1c(NC(=O)C2COc3ccccc3O2)sc2c1CC(C)(C)NC2(C)C (centres undefined),inconclusive: -39.2%
3,O=C(C1=C[C@@H](c2coc3ccccc3c2=O)C[C@@H](OCc2ccc(CO)cc2)O1)N1CCN(Cc2ccccc2)CC1,inconclusive: -39.1%
4,COc1ccc(C2=NN(CN3C(=O)C(=O)c4ccccc43)C(c3cccc([N+](=O)[O-])c3)C2)cc1 (centres undefined),active: -65.9%
5,O=C(CSc1nnc(CCCN2C(=O)c3cccc4cccc(c34)C2=O)n1-c1ccccc1)NCCCO,inconclusive: -49.7%
6,O=C(Nc1ccccc1)C1CC(=O)N(c2ccc3c4c(cccc24)CC3)C1 (centres undefined),inconclusive: -37.4%
7,Cn1ncc(Cl)c1C(=O)Nc1ccncc1,inconclusive: -32.5%
8,O=C(Nc1ccc(Nc2ccccc2)cc1)Nc1ccccc1Cl,inconclusive: -47.6%
9,O=C(NCc1cccnc1)/C(=C\c1ccc(-c2cccc(Cl)c2)o1)S(=O)(=O)c1ccccc1,active: -105%
10,COCCOc1ccc(C(F)(F)F)cc1NC(=O)Cc1ccc(S(=O)(=O)N2CCOCC2)s1,inconclusive: -42.4%
11,O=C(NCc1ccccc1)N(Cc1cc2cc3c(cc2[nH]c1=O)OCCO3)CC1CCCO1 (centres undefined),inconclusive: -30.7%
12,CCOc1ccc(CCNC(=O)c2ccc(CS(=O)Cc3cccc(Cl)c3)o2)cc1 (centres undefined),inconclusive: -41.7%
13,O=C(Cn1c(C(F)(F)F)nc2ccccc21)NCCCN1CCOCC1,inconclusive: -31.7%
14,FC(F)(F)c1cccc(Oc2nc(-c3ccccc3)nnc2C(F)(F)F)c1,inconclusive: -37.1%
15,CN1CCN(Cn2cc(/C=C/C(=O)c3ccccc3)c3ccccc32)CC1,active: -65.9%
16,O=S(=O)(c1ccc(Nc2ccc3c(c2)OCO3)nc1)N1CCOCC1,inconclusive: -40.2%
17,COc1cccc(NC(=O)CN2CCN(CC(=O)Nc3ccccc3Cl)CC2)c1,inconclusive: -41.4%
18,CCOc1cccc(Cc2c[nH]c(=O)[nH]c2=O)c1,inconclusive: -32.1%
19,O=C(N/N=C/c1cccn1-c1ccc([N+](=O)[O-])cc1)c1cccnc1,inactive: 37.8%
20,CN(Cc1ccccn1)Cc1cn(Cc2ccccc2)nc1-c1ccc2c(c1)OCO2,inconclusive: -34.5%
21,O=C(CC(c1ccccc1)c1cc(Br)ccc1O)N1CCCCC1 (centres undefined),inconclusive: -36.2%

row,SMILES,activity change
1,COc1ccc(CNCCC(c2ccccc2)c2ccc3c(c2)OCO3)cc1 (centres undefined),active: -87.5%
2,COc1ccc(-c2oc(=O)c3cc(OC)c(OC)cc3c2-c2ccc3c(c2)OCO3)cc1,inactive: -10.8%
3,O=C(/C=C/c1ccccc1Cl)c1ccc[nH]1,inconclusive: -33.3%
4,CC(Oc1cccc(Br)c1)C(=O)NNC(=O)c1ccccn1 (centres undefined),inactive: 92.8%
5,CCc1ccccc1-n1ncc(C(=O)Nc2ccccc2OC)c1C,inconclusive: -39.3%
6,OCc1ccccc1-c1cnc2cccnn12,inactive: 23.2%
7,CC(C)Oc1ccc(CNC(=O)CC(c2ccccc2)c2cc(Cl)ccc2O)cc1 (centres undefined),inconclusive: -35.9%
8,CCCCN(CC)C(=O)c1cc2cc3ccc(OC)cc3nc2o1,inconclusive: -39.6%
9,COCCCN1C(=O)C(CC(=O)NC2CCCC2)CC(C(=O)N(C(C)C)C(C)C)=C1C (centres undefined),inconclusive: -32.3%
10,CCCCSc1oc(-c2ccco2)nc1S(=O)(=O)c1ccccc1,inconclusive: -32.3%
11,Nc1nccc(SCc2ccccc2)n1,inconclusive: -45.4%
12,CCC(C)Cn1cnc2c(Sc3c([N+](=O)[O-])ncn3C)nc(N)nc21 (centres undefined),active: -55.9%
13,O=C(NNC(=O)c1cccc2ccccc12)c1cccc(Cl)c1,inactive: -2.51%
14,CS(=O)(=O)N1CCc2cc(C(=O)N3CCN(c4ccccc4)CC3)ccc21,inactive
15,CN(CC(=O)Nc1ccc(Cl)c(C(F)(F)F)c1)C(=O)C1CCN(C(=O)c2ccc(Cl)cc2)CC1,inconclusive: -48.3%
16,CCCS(=O)(=O)c1c(S(=O)(=O)CCC)c2c3ccccc3ccn2c1C(=O)OC,inconclusive: -36.7%
17,COCCn1c(SCC(=O)Nc2ccc(C(N)=O)cc2)nc2c([nH]c3ccccc32)c1=O,inconclusive: -46.3%
18,CC(C(=O)Nc1ccc2c(c1)OCCO2)N(C)Cc1c(F)cccc1Cl (centres undefined),inconclusive: -43.1%
19,COc1cc(-c2nnc(SCC3(c4ccc(Br)cc4)OCCO3)o2)cc(OC)c1OC,inconclusive: -32.7%
20,CCCC#Cc1cnc2c(c1)C(=O)N([C@H](C)CO)C[C@H](C)[C@@H](CN(C)C(=O)CCN1CCCCC1)O2,inconclusive: -33.7%
21,CC(=O)N1CC(=O)N=C1SCC(=O)Nc1nc(C)c(-c2ccccc2)s1,active: -76.7%

row,SMILES,activity change
1,O=C(/C=C/c1ccc2c(c1)OCO2)c1ccc(F)cc1,active: -73.8%
2,COc1ccc2[nH]c(=O)c(-c3nnn(-c4ccccc4)n3)cc2c1,inconclusive: -30.3%
3,OCCCNc1cc(-c2ccccc2)nc2cc(-c3ccc(F)cc3)nn12,active: -90.5%
4,Cc1sc(N2CCN(S(=O)(=O)c3ccc4c(c3)NC(=O)CO4)CC2)nc1-c1ccccc1,inconclusive: -42.2%
5,O=C(NCC(c1cccs1)N1CCOCC1)c1ccc(Cl)c([N+](=O)[O-])c1 (centres undefined),active: -93.6%
6,Cc1ccc2[nH]c3c(N4CCN(Cc5ccccc5)CC4)ncnc3c2c1,inconclusive: -34.3%
7,Cc1ccc(NS(=O)(=O)c2ccc3c(c2)c(=O)n(C)c(=O)n3C)cc1F,inconclusive: -30.9%
8,COc1ccc(C(=O)N2CC3(CC(c4cccc(NC(=O)CC(c5ccccc5)c5ccccc5)c4)=NO3)C[C@H]2C(N)=O)cc1 (some centres undefined),inconclusive: -34.6%
9,Cc1cc(C)n2c(SCC(=O)Nc3ccc(F)cc3)nnc2n1,inconclusive: -40.2%
10,O=C(CCSc1ccccc1Cl)Nc1cccc([N+](=O)[O-])c1,active: -150%
11,CC1=C(C(=O)N(C)C)CC(CC(=O)NCC2CCCCC2)C(=O)N1CCCN1CCCC1=O (centres undefined),inactive: 14.8%
12,COc1cccc(NC(=O)c2c(C)nn(-c3ccccc3)c2Cl)c1,inconclusive: -33%
13,O=C(C1CCN(S(=O)(=O)c2ccccc2F)CC1)N1CCc2ccccc21,inconclusive: -38.8%
14,COc1ccc(C(=O)NCC(c2ccco2)N2CCc3ccccc32)cc1OC (centres undefined),inactive: -0.703%
15,CC(O)(c1ccccc1)c1nc(-c2cccc(F)c2)cs1 (centres undefined),inactive: -0.674%
16,N=c1c2c3c(sc2ncn1Cc1ccco1)CCCCC3,inconclusive: -35.9%
17,N#Cc1ccc(NCCc2ccccn2)c([N+](=O)[O-])c1,inconclusive: -30.6%
18,c1ccc2c(NC3=NCCCCS3)cccc2c1,inconclusive: -37.2%
19,CCN(CC)CCCN(C(=O)c1cccs1)c1nc(-c2ccc(OC)cc2)cs1,inconclusive: -44.1%
20,COc1ccc(/C=N/Nc2nc3ccccc3[nH]2)cc1OC,active: -75.3%
21,O=C(CCCN1C(=O)/C(=C/c2cccc(Br)c2)SC1=S)NCCCN1CCOCC1,active: -96.4%

row,SMILES,activity change
1,CC(C)(C)c1ccc(C(=O)Nc2ccc(N3CCOCC3)cc2)cc1,inconclusive: -39.9%
2,Cc1nc(COc2ccc(C(=O)Nc3ccccc3N3CCOCC3)cc2)cs1,inconclusive: -31.2%
3,COc1ccc(S(=O)(=O)N2CCCCC2c2cc(C(=O)NCc3ccccc3)no2)cc1 (centres undefined),inconclusive: -31.1%
4,CN(C)c1ccc(CN2CCC(C(=O)NC(c3ccc(Cl)cc3)c3cnccn3)CC2)cc1 (centres undefined),inconclusive: -37.1%
5,O=C(Nc1cccc(-c2nnc(-c3ccccc3)o2)c1)C1CC1,inconclusive: -31.8%
6,CCOC(=O)/C=C1\SCC(=O)N1CCOc1cccc(Br)c1,inconclusive: -37.2%
7,Cc1cc(C)cc(S(=O)(=O)Cc2noc(C(=O)NCc3ccccc3)c2C(=O)NCc2ccccc2)c1,inactive: -20.3%
8,CCOC(=O)C1=C(COCCN)NC(C)=C(C(=O)OC)C1c1ccccc1Cl (centres undefined),inconclusive: -49.2% and inconclusive: -47.3%
9,COc1cc(/C=C2\SC(N)=NC2=O)cc(OC)c1,inactive: -11.2%
10,Cn1c(CSc2nc3ccccc3n2C)nc2ccccc21,inconclusive: -43.4%
11,COC(=O)N1C(=O)[C@](c2ccccc2)(C2CCCC2)N1C(=O)OC,active: -95.6%
12,O=C(Nc1ccc(N2CCN(C(=O)c3ccco3)CC2)c(Cl)c1)c1c(F)c(F)c(F)c(F)c1F,active: -90.3%
13,CCCCN(CC)C(=O)Cn1ncc2c3ccccc3n(CCC)c2c1=O,inactive: -20.6%
14,O=C(NCc1ccccc1)C1C(c2ccc3c(c2)OCO3)=Nc2ccccc2N1C(=O)c1cccc2ccccc12 (centres undefined),inactive: -2.07%
15,Cc1ccc(C)c(N(CC(=O)NCc2ccco2)C(=O)CNS(=O)(=O)c2ccc(F)cc2)c1,inconclusive: -31.2%
16,Cc1cc(C(=O)NNC(=O)c2ccc(C)c([N+](=O)[O-])c2)c(C)o1,inactive: -2.03%
17,O=Cc1ccccc1OCCOc1ccccc1C=O,inconclusive: -40.1%
18,CN1CCN(c2nc3ccccc3nc2C(C#N)S(=O)(=O)c2ccccc2)CC1 (centres undefined),inconclusive: -36.9%
19,CCCCCCn1c(O)c(/C=C2\C=NN=C2c2ccccc2)sc1=S,active: -87.5%
20,O=C1[C@@H]2Cc3c([nH]c4ccccc34)C(c3ccc([N+](=O)[O-])cc3)N2C(=O)CN1C1CC1 (some centres undefined),inactive: -20.9%
21,Cc1ccc(S(=O)(=O)n2cccc2/C=C/[N+](=O)[O-])cc1,inconclusive: -49.8%
